Laboratory results published in PubChem BioAssay AID624417 (National Center for Advancing Translational Sciences (NCATS), 2012).
About 6,400 (1.6%) of roughly 410,000 compounds were called active. The shares of active, inactive and inconclusive entries below differ from those in the screen. Calls follow the shape of the dose curve; as a rule, active = well fitted inhibition curve with a large enough effect; inconclusive = small, poorly fitted or top-dose-only effect; inactive = no such curve, though single readings can be large or run the other way. Where the call is inconclusive, the potency comes from a doubtful curve fit.

molecular target: Glucagon-like peptide 1 receptor (Homo sapiens) (UniProt P43220); assay: qHTS of GLP-1 Receptor Inverse Agonists (Inhibition Mode); conditions: HEK293 GLP-1R CRE-luciferase, luminescence, 24 h, GLP-1R form is constitutively active; activity change, negative = inhibition: at 38.3 µM (top of the series) unless noted; also: nearly all actives have a fitted effect of over 55% in size
Chain of UniProt P43220 (P43220 whole entry, looked up): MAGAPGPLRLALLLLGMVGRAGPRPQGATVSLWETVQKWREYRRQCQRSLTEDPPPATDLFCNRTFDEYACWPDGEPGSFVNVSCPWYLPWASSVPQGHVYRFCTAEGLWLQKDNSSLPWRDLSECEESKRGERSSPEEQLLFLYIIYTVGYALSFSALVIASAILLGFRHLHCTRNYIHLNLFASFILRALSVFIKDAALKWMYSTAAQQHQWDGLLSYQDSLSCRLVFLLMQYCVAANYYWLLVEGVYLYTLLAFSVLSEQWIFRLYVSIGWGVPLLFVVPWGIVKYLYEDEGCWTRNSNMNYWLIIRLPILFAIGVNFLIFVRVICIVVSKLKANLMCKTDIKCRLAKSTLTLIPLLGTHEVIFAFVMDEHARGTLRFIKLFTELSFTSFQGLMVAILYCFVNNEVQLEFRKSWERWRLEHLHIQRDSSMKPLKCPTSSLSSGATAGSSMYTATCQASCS
Procedure, shortened: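 Assay principle: reduced luminescence from a cAMP-responsive reporter in HEK293 cells co-expressing a constitutively active GLP-1R. Conditions: 24 hr compound incubation, 37 deg C, 5% CO2.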
% is scaled to controls: 0 for no effect and ±100 for the full control effect; potency is read from the fitted curve at half-maximal effect; tags tell the direction and shape of the fitted curve.

Potency, inconclusive:
Cc1cccc(Cn2c(C)nc3c(N)c(C)c(C)cc32)c1 11.2 µM [inhibitor, single point], CCCCCCCN(C(=O)CCl)c1ccccc1C 11.2 µM [inhibitor, partial curve, poor fit], Cc1ccc(C)c(NS(=O)(=O)c2cc(C(=O)NCC3CCCO3)ccc2C)c1 (stereo not given) 28.2 µM [inhibitor, partial curve, poor fit], Nc1ccccc1Sc1c[nH]c2ccccc12 28.2 µM [inhibitor, single point], CCOC(=O)C1(Cc2ccccc2)CCN(Cc2ccc(C3CCCCO3)s2)CC1 (stereo not given) 12.6 µM [inhibitor, single point], CCOC(=O)[C@]12CCCC=C1N(Cc1cccc3ccccc13)C(=O)[C@H](CC(=O)N1CCC(c3ccccc3)CC1)C2 11.2 µM [inhibitor, single point], CCOC(=O)c1c(NC(=O)CCl)sc(C(=O)N(CC)CC)c1C 22.4 µM [inhibitor, single point], Cc1nc(C)n(C(Oc2ccc(Cl)cc2Cl)C(=O)C(C)(C)C)n1 (stereo not given) 15.8 µM [inhibitor, single point], CCOc1ccc(CN2CCN(S(=O)(=O)c3ccc(Cl)cc3)CC2)cc1 28.2 µM [inhibitor, single point], CCc1cccc(NC(=O)Cn2ncn3c(cc4ccccc43)c2=O)c1 28.2 µM [inhibitor, single point], COC(=O)C(Cc1ccccc1)NC(=O)C12CC3CC(CC(C3)C1)C2 (stereo not given) 28.2 µM [inhibitor, single point], CC1CCN(CC(O)COc2ccc(C(=O)c3ccccc3)cc2)CC1 (stereo not given) 28.2 µM [inhibitor, single point], Oc1ccccc1/C=N/Nc1ccccc1 3.16 µM [inhibitor, full curve], CN(c1ccccc1)S(=O)(=O)c1cccc(C(=O)NCC(=O)Nc2ccc(F)c(F)c2F)c1 8.91 µM [inhibitor, partial curve, poor fit], CSc1ccc(S(=O)(=O)N2CCC(C(=O)Nc3ccc(NC(C)=O)cc3)CC2)cc1 31.6 µM [inhibitor, single point], CCCOc1ccc(C2=CSC3=NCCN23)cc1 3.55 µM [inhibitor, partial curve, poor fit], Cc1ccc(Cc2nc3ccccc3nc2SCC(=O)N2CCCCC2)cc1 14.1 µM [inhibitor, single point], COc1ccc(C(=O)N2CCCCCCC2)cc1OC1CCN(C(C)C)CC1 11.2 µM [inhibitor, single point], Brc1ccc(OCCCCCN2CCOCC2)cc1 20 µM [inhibitor, single point], Cc1ccc(-c2ocnc2C(=O)Nc2ccccc2NC(=O)c2ccccn2)cc1 2 µM [inhibitor, full curve, poor fit], O=C(NC1CCCCCC1)c1c(O)nc2sccn2c1=O 3.16 µM [inhibitor, full curve], O=C(Nc1ccccc1)c1ccc(S(=O)(=O)Nc2cccc(O)c2)cc1 10 µM [inhibitor, single point], O=C(CCCN1CCc2[nH]c3ccc(F)cc3c2C1)c1ccc(F)cc1 7.94 µM [inhibitor, partial curve, poor fit], CN1CCN(CC/C=C2/c3ccccc3Sc3ccc(S(=O)(=O)N(C)C)cc32)CC1 10 µM [inhibitor, single point], Cc1nc(-c2ccccc2)c(-c2ccccc2)[nH]1 28.2 µM [inhibitor, single point], CCN(CC)S(=O)(=O)c1ccc(OC)c(NC(=O)CSc2ccccc2)c1 31.6 µM [inhibitor, partial curve, poor fit], C[C@@]12C(=O)Nc3cc(F)ccc3C(=O)N1[C@H]1c3cc(Br)ccc3OC[C@@H]1[C@@H]2c1ccccc1 11.2 µM [inhibitor, partial curve, poor fit], CC1(C(=O)Nc2cccc(C#N)c2)CCN1C(=O)Cc1ccc(-c2ccccc2)cc1 (stereo not given) 12.6 µM [inhibitor, partial curve, poor fit], CCN(CC)CCCSc1nc2ccccc2s1 8.91 µM [inhibitor, partial curve, poor fit], Cc1ccc(NC(=O)C2CCN(c3nc4ccccc4[nH]3)CC2)cc1Cl 11.2 µM [inhibitor, single point], O=C(NCc1cccs1)c1ccc(CSc2nc3ccncc3n2Cc2cccc(F)c2)cc1 11.2 µM [inhibitor, single point]

Activity change, negative = inhibition, inactive:
O=C(CCCCCn1c(=S)[nH]c2ccc(N3CCOCC3)cc2c1=O)NCc1ccc(Cl)cc1 -17.1% [at 7.66 µM], COc1ccc(CNC(=O)CCCn2ncn3c(cc4occc43)c2=O)cc1 11.2%, CCOc1ccccc1-c1nc(-c2cc3ccccc3nc2OC)no1 -4.71%, O=C(CCCc1ccccc1)N1CCN(C2CCCCC2)CC1 -4.91%, CCOc1ccccc1NC(=O)c1c(NCc2ccc(C)o2)sc2c1CCCCC2 -7.61%, O=C1NCCOC(=O)[C@H](Cc2ccc(F)cc2)CC/C=C/C[C@H]1CC(=O)N(CCO)Cc1ccccc1 -14.5%, CCN1C[C@@H]2[C@@H]3C(=O)N(Cc4ccccc4)C(=O)[C@@H]3[C@](Cc3ccccc3)(C1=O)N2C(=O)c1ccc(Cl)cc1 12.5%, Cc1nn(-c2cccc(Cl)c2)c2nc(-c3ccco3)cc(C(=O)O)c12 -0.511%

Activity change, negative = inhibition, inconclusive:
C=C(C)COc1ccc(-c2ncncc2-c2ccc(Br)cc2)c(O)c1 -80.9% [inhibitor]
